Results published in PubChem BioAssay AID504832 (National Center for Advancing Translational Sciences (NCATS), 2011).
Out of some 310,000 compounds screened, about 18,000 (5.8%) were called active. This list was built around the results that the source calls inconclusive (neither active nor inactive); the mix of calls is not that of the screen. Calls follow the shape of the dose curve; as a rule, active = well fitted inhibition curve with a large enough effect; inconclusive = small, poorly fitted or top-dose-only effect, or another doubt; inactive = no such curve, though single readings can be large or run the other way. Potencies of inconclusive entries are left out as doubtful fits.

assay: Primary qHTS for delayed death inhibitors of the malarial parasite plastid, 48 hour incubation; details: P. falciparum luciferase growth in erythrocytes; series mostly up to 28.7 µM; activity change, negative = inhibition: at the top concentration
Outline: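 Read-out is firefly luciferase luminescence from an integrated reporter in P. falciparum, so falling signal marks reduced parasite growth. Infected erythrocytes were at 2% hematocrit and 0.1% parasitemia (final) in Albumax-supplemented RPMI 1640.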
% is scaled to controls: 0 for no effect and ±100 for the full control effect; potency is read from the fitted curve at half-maximal effect; tags tell the direction and shape of the fitted curve.

Row | SMILES | activity change, negative = inhibition | Potency
1 | O=C(CN1CCOCC1)Nc1nc(-c2ccccc2Cl)cs1 | inactive: -9.02% | –
2 | COc1ccc(S(=O)(=O)Cc2ccc(C(=O)N3CCN(c4cccc(C)c4C)CC3)o2)cc1 | – | inconclusive [inhibitor, partial curve, poor fit]
3 | Cc1cccc(N2CCN(C(=O)c3cccc(N4C(=O)C5C6C=CC(C6)C5C4=O)c3)CC2C)c1 (stereo not given) | – | inconclusive [inhibitor, partial curve, poor fit]
4 | CCOc1ccc(/C=C/C(=O)Oc2ccc(OC)cc2)cc1 | – | inconclusive [inhibitor, partial curve]
5 | O=C(c1ccccc1-n1cccn1)N1CCc2c([nH]c3ccccc23)C1c1ccccn1 (stereo not given) | – | inconclusive [inhibitor, single point]
6 | COc1ccccc1NC(=O)CSc1ccc(-c2ccccn2)nn1 | – | inconclusive [inhibitor, partial curve, poor fit]
7 | Cc1ccc(-c2csc(NC(=O)COc3ccc(N(C)S(=O)(=O)c4ccc(C)cc4)cc3)n2)cc1 | – | inconclusive [inhibitor, single point]
8 | CN1CC(C(=O)c2ccc(Cl)cc2)C(c2ccc(N(C)C)cc2)C1 (stereo not given) | – | inconclusive [inhibitor, single point]
9 | O=C(NCCc1nccs1)C1CCC(=O)N(Cc2cccc(C(F)(F)F)c2)C1 (stereo not given) | – | inconclusive [inhibitor, partial curve, poor fit]
10 | COc1ccc(C2C=C(c3ccc(F)cc3)NC(=S)N2)cc1OC (stereo not given) | – | inconclusive [inhibitor, single point]
11 | CC1=C(C(=O)Nc2cccnc2)C(c2ccncc2)n2nnnc2N1 (stereo not given) | – | inconclusive [inhibitor, partial curve]
12 | COC(=O)C1=C(c2ccc3ccccc3c2)C[C@@H]2CC[C@H]1N2C(=O)NCCNC(C)=O | – | inconclusive [inhibitor, single point]
13 | CCOC(=O)c1sc(NC(=O)c2cc3n(n2)C(C(F)(F)F)CC(c2ccccc2)N3)c(C(=O)OCC)c1C (stereo not given) | – | inconclusive [inhibitor, full curve]
14 | CCOCCCNc1nc(=S)[nH]c2cc(OC)c(OC)cc12 | – | inconclusive [inhibitor, single point]
15 | CCC1CCCCN1Cc1c(O)ccc2c(=O)c(-c3ccccc3)coc12 (stereo not given) | – | inconclusive [inhibitor, single point]
16 | COc1ccc(N(C)C(=O)c2ccc3nc(-c4ccccc4)c(-c4ccccc4)nc3c2)cc1 | – | inconclusive [inhibitor, single point]
17 | CCN(CC)CCNC(=O)CCc1n[nH]c(=O)c2ccccc12 | – | inconclusive [inhibitor, full curve, poor fit]
18 | Cc1ccc(CNC(=O)C2CCN(C(=O)Nc3ccccc3)CC2)cc1 | inactive: 2.77% | –
19 | CCOc1ccc(NS(=O)(=O)c2ccc(C(=O)NCC3(N(C)C)CCCCC3)cc2)cc1 | – | active: 8.28 µM
20 | CCOc1ccc(N(C)S(=O)(=O)c2ccc3[nH]cc(C(=O)NCC(OC)OC)c(=O)c3c2)cc1 | – | inconclusive [inhibitor, partial curve]

Row | SMILES | activity change, negative = inhibition | Potency
21 | O=C(Nc1ccccc1OC(F)(F)F)c1ccc([N+](=O)[O-])cc1 | inactive: 0% | –
22 | Clc1cccc(-c2nn3c(-c4ccncc4)nnc3s2)c1 | inactive: 20.3% | –
23 | O=C(NCCCCC(NC(=O)C1CCCCC1)C(=O)O)c1ccccc1 (stereo not given) | – | inconclusive [inhibitor, single point]
24 | CC(C)C(=O)Nc1cccc(-c2cn3ccsc3n2)c1 | inactive: 44.6% | –
25 | Cc1cc(C)cc(NC(=O)C(NCC2CCCO2)c2ccccc2)c1 (stereo not given) | – | inconclusive [inhibitor, single point]
26 | COc1ccc(Cl)cc1NC(=S)NNC(=O)c1cccs1 | – | inconclusive [inhibitor, full curve]
27 | CC1CCCC(C)N1C(=O)CN1C(=O)NC2(CCOc3ccccc32)C1=O (stereo not given) | inactive: -2% | –
28 | Cc1ccc(C)c(OCC(=O)Nc2ccc(S(=O)(=O)N3CCN(C)CC3)cc2)c1 | – | inconclusive [inhibitor, single point]
29 | Cc1ccc(NS(=O)(=O)c2ccc(OCC(=O)NCc3ccco3)cc2)cc1 | – | inconclusive [inhibitor, full curve, poor fit]
30 | Cc1ccccc1NC(=O)CNc1ccccc1N1CCCCC1 | – | inconclusive [inhibitor, single point]
31 | Cc1cc(Cl)cc(C)c1OCC(=O)N1CCN(c2ncccn2)CC1 | – | inconclusive [inhibitor, single point]
32 | O=C(CSc1nc2[nH]ncc2c(=O)n1-c1ccccc1Cl)N1CCCC1 | inactive: 20.4% | –
33 | CCOC(=O)c1c(CN2CCN(C)CC2)n(C)c2cc(Br)c(OC)cc12 | – | active: 14.7 µM
34 | COc1ccc2nc(NC(=O)C3CCN(S(=O)(=O)c4cccc5nsnc45)CC3)sc2c1 | – | inconclusive [inhibitor, partial curve]
35 | C=CCOc1c(Br)cc(CNCCCN2CCOCC2)cc1OC | – | inconclusive [inhibitor, single point]
36 | Cc1ccc2[nH]c3c(=O)n(CC(=O)NCCCN(C)Cc4ccccc4)ncc3c2c1 | – | inconclusive [inhibitor, single point]
37 | CCC(c1nnnn1Cc1ccc(OC)cc1)N1CCN(c2ccc(OC)cc2)CC1 (stereo not given) | – | inconclusive [inhibitor, partial curve, poor fit]
38 | O=S(=O)(/N=C(/Nc1cccc2ccccc12)c1ccccc1)c1ccccc1 | – | inconclusive [inhibitor, single point]
39 | CC(C)CN(C(=O)CC1CCCC1)c1c(N)n(Cc2ccccc2)c(=O)[nH]c1=O | – | inconclusive [inhibitor, single point]
40 | CCOc1cc(C)nc(N2CCC(C(=O)Nc3ccccc3OCC)CC2)n1 | – | inconclusive [inhibitor, full curve, poor fit]
